Reference: a compilation of properties of binary mixtures (doi:10.1021/je300542s)
Some of these densities may be calculated back from excess volumes.

Test: xn = mol fraction of the nth substance listed
Details: 101 kPa

CC[n+]1ccn(C)c1.F[B-](F)(F)F + CN1CCCC1=O
mass density [kg/m3]
Details	293.15 K	298.15 K	303.15 K	308.15 K
x2 = 0.0696	–	–	1269.5	1265.6
x2 = 0.0871	–	1271.1	1267.7	1263.8
x2 = 0.1273	1270.1	1266.5	–	1259.3
x2 = 0.1676	1265	1261.5	1258.3	–
x2 = 0.2658	1250.8	1247.8	1244.6	1240.9
x2 = 0.2689	1250.4	1247.3	–	1240.4
x2 = 0.3228	1241.5	1238.6	1235.5	1231.8
x2 = 0.3683	1233.3	1230.5	–	1223.7
x2 = 0.4291	1221.4	1218.8	–	–
x2 = 0.4744	1211.7	1209.1	1205.8	1202.1
x2 = 0.5227	1200.6	1198	–	1190.9
x2 = 0.5685	1189.2	1186.5	1183.1	1179.4
x2 = 0.6286	1173	1170.2	1166.7	1162.9
x2 = 0.6703	1160.8	1157.9	–	1150.5
x2 = 0.7291	1142.4	1139.1	1135.5	1131.6
x2 = 0.7711	1128.1	–	1120.9	1116.9
x2 = 0.8188	1110.8	1107.1	–	–
x2 = 0.8887	1083.3	1079	1074.9	1070.6

O=C1CCCN1 + CC[n+]1ccn(C)c1.F[B-](F)(F)F
mass density [kg/m3]
Details	293.15 K	298.15 K	303.15 K	308.15 K
x1 = 0.0786	1278.8	1275	1271.3	1267.2
x1 = 0.0912	1278	–	1270.4	1266.4
x1 = 0.1278	1275.3	1271.5	1267.8	1263.8
x1 = 0.1711	–	1268.1	–	–
x1 = 0.2294	–	–	1259.5	–
x1 = 0.2686	1263.4	1259.6	1255.8	–
x1 = 0.3292	1257.2	1253.4	1249.6	1245.5
x1 = 0.3684	1252.9	1249	1245.2	1241.1
x1 = 0.4283	1245.5	1241.6	1237.9	1233.7
x1 = 0.4695	1239.9	1236.1	1232.3	1228.2
x1 = 0.5281	–	1227.3	1223.6	1219.4
x1 = 0.5711	1224	1220.3	–	1212.4
x1 = 0.6283	1213.7	1209.9	1206.3	1202.2
x1 = 0.6603	1207.4	1203.6	1200	1196
x1 = 0.7302	1192.2	–	1184.8	–
x1 = 0.7598	–	1181.5	1177.8	–
x1 = 0.8296	1167	1163.3	1159.6	1155.8
x1 = 0.8901	–	1145.4	–	1137.9
